Several values for one entry are separate records, joined by “and”; a condition that tells them apart may be missing. Equal entries are not always repeated. In all, about 420,000 compounds went through this assay and about 50,000 (12%) were called active. Inconclusive means that the source gave no clear call. Such entries were picked first, then a sample of the others. Calls follow the shape of the dose curve; as a rule, active = well fitted inhibition curve with a large enough effect; inconclusive = small, poorly fitted or top-dose-only effect; inactive = flat fitted curve, though single readings scatter. Where the call is inconclusive, the potency comes from a doubtful curve fit.
Test: qHTS for Inhibitors of human tyrosyl-DNA phosphodiesterase 1 (TDP1): qHTS in cells in presence of CPT; also: nearly all actives have a fitted effect of over 55% in size
Details: chicken DT40 Tdp1-/-;hTDP1 cells + 20 nM CPT, ATP luminescence, 48 h; activity change, negative = growth inhibition: at 46.2 µM (top of the series) unless noted
How it was run: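 Chicken DT40 Tdp1-/- cells complemented with human TDP1, 400 cells/well, exposed to compounds plus 20 nM camptothecin for at least 48 h at 37 C; viability read as ATP content by CellTiter-Glo luminescence.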
% is scaled to controls: 0 for no effect and ±100 for the full control effect; potency is read from the fitted curve at half-maximal effect; tags tell the direction and shape of the fitted curve.

Compound	Potency	activity change, negative = growth inhibition
Cc1ccc(S(=O)(=O)N2CC=C(C(=O)NC3CC3)CC2)cc1	inconclusive: 20.6 µM [inhibitor, single point]	
N#CC1=C(N)Oc2cc(O)ccc2C1c1cccs1 (centres undefined)	inconclusive: 18.4 µM [inhibitor, single point]	
COc1ccc(C(=O)N2CCc3c([nH]c4ccccc34)C2C(F)(F)F)cc1 (centres undefined)	inconclusive: 25.9 µM [inhibitor, single point]	
Clc1cccc(-c2nc3ccc(Br)cn3c2Cc2ccsc2)c1	inactive	
CCOc1cc(CNC(=O)CCCn2c(=O)c3cccn3c3cccnc32)cc(OCC)c1OCC	inconclusive: 29.1 µM [inhibitor, single point] and inconclusive: 23.1 µM [inhibitor, single point]	
Cc1nc(-c2ccccc2)sc1C1(C)CC(c2cccc(F)c2)=NO1 (centres undefined)	inactive	
Cc1ccc(/C=N/n2c(-c3cccs3)n[nH]c2=S)cc1	inconclusive: 29.1 µM [inhibitor, single point]	
CC(NC(=O)c1ccco1)c1nnc2n1CCN(Cc1ccc(N(C)C)cc1)CC2 (centres undefined)	inactive	
CCOC(=O)[C@]12CCC=C1N(Cc1ccc3c(c1)OCO3)C(=O)[C@H](CC(=O)NCc1ccc(C)o1)C2	inconclusive: 25.9 µM [inhibitor, single point]	
O=C(NCc1ccccn1)c1cc(S(=O)(=O)N2CCN(c3ccccc3)CC2)ccc1Cl	active: 10.3 µM	
CCCCCCC(=O)N(O)C1CC(=O)N(c2ccc(Br)cc2)C1=O (centres undefined)	active: 20.6 µM	
Cc1ccc(Cn2c(=O)c3ccccc3n3c(SCC(=O)N4CCCCC4C)nnc23)cc1 (centres undefined)	active: 18.4 µM	
CCCN(CCC)S(=O)(=O)c1ccc(C)cc1	inactive	
Cn1c(CSc2nc3ccccc3s2)nc2ccccc21	inconclusive: 25.9 µM [inhibitor, single point]	
CC(=O)Nc1cccc(NC(=O)CSc2cn(CC(=O)N(C(C)C)C(C)C)c3ccccc23)c1	inconclusive: 18.4 µM [inhibitor, single point]	
COc1ccc(-n2nc(C(=O)NCC(=O)N3CCN(c4ccc(F)cc4)CC3)c3ccccc3c2=O)c(OC)c1	active: 20.6 µM	
Cc1ccc(-c2cccc(CN3CCN(C4CCN(C(C)C)CC4)C(CCO)C3)c2)o1 (centres undefined)	inconclusive: 16.4 µM [inhibitor, single point]	
CSCCC(NC(=O)CCC(=O)OCC(=O)[C@@]1(O)CCC2[C@@H]3CCC4=CC(=O)C=C[C@]4(C)C3[C@@H](O)C[C@@]21C)C(=O)O (some centres undefined)	inactive	
COc1ccc(CNC(=O)Nc2cccc3ccccc23)cc1	inactive	
Cc1c(Cl)cccc1Nc1nn2c(=O)c3ccc(C(=O)NCCc4ccccc4)cc3nc2s1	active: 8.2 µM	
Cc1ccc(O/C=C2/Nn3c(nnc3-c3cc(-c4ccccc4)n[nH]3)S2)cc1	active: 7.08 µM	
O=C(Cn1cnc2sc(-c3ccccc3)cc2c1=O)NCCc1ccccc1	inconclusive: 23.1 µM [inhibitor, single point]	
CN(C)C(=O)COC(=O)c1ccccc1OCC(=O)Nc1ccc(Br)cc1	inconclusive: 35.5 µM [inhibitor, single point]	

Compound	Potency	activity change, negative = growth inhibition
CC(=O)NC1C(=O)N(CCN2CCOCC2)c2ccc(Br)cc21 (centres undefined)	inactive	
COc1ccc(-c2nn(-c3ccccc3)cc2CO)cc1OC	inconclusive: 18.4 µM [inhibitor, single point]	
Cc1nn(Cc2ccc(C(=O)N3c4ccc(F)cc4CCC3C)o2)c(C)c1Br (centres undefined)	active: 20.6 µM	
Cc1nc2ccccc2cc1C(=O)NCc1ccco1	inconclusive: 18.4 µM [inhibitor, single point]	
CCn1c(=NC(=O)CS(=O)(=O)c2ccc(F)cc2)sc2cccc(OC)c21	active: 14.6 µM	
COc1ccc(C(=O)/C=C/c2ccc(O)cc2)c(O)c1C/C=C(\C)CCC=C(C)C	inconclusive: 20.6 µM [inhibitor, single point]	
Cc1cccc(N(CC(=O)NCCSCc2ccc(Cl)cc2)S(C)(=O)=O)c1C	active: 18.4 µM	
CCCNC(=S)N(Cc1cc2cc(C)ccc2n2nnnc12)CC(C)(C)CN(C)C	inconclusive: 25.9 µM [inhibitor, single point]	
C=CC(C)(O)CC/C=C(\C)CCC=C(C)C (centres undefined)	inactive	
COc1ccc(C(C)=O)cc1Cn1cnc2c(cnn2C)c1=O	inconclusive: 29.1 µM [inhibitor, single point]	
O=C(c1ccc(CN2CCOCC2)cc1)N1CCN(c2ccccc2F)CC1	inactive	
O=C(NC1CC(=O)N(c2ccccc2)C1)c1ccc(Br)o1 (centres undefined)	inactive	
COc1ccc(NC(=O)c2cc(-c3cc(F)ccc3OCC3CCCO3)n[nH]2)cc1OC (centres undefined)	inconclusive: 23.1 µM [inhibitor, single point]	
CC(=O)Nc1ccc(NC(=O)COC(=O)c2ccccc2OCc2cccc(Br)c2)cc1	inactive	
CC(=O)Oc1ccc2oc(-c3ccccc3)c(C(N)=O)c2c1	inconclusive: 29.1 µM [inhibitor, single point]	
O=C1NC(Cc2ccccc2)c2nc3cc(F)c(F)cc3c(=O)n2-c2ncccc21 (centres undefined)	inactive	
CCN(CC)C(=O)Cn1cc(SCC(=O)Nc2ccccc2F)c2ccccc21	inconclusive: 16.4 µM [inhibitor, single point]	
O=C(CSc1cccc2cccnc12)N/N=C/c1cccc(O)c1	inconclusive: 29.1 µM [inhibitor, single point]	
COc1ccc(NC(=O)c2nnn(Cc3nc(-c4cc(OC)c(OC)c(OC)c4)oc3C)c2C)cc1	inactive	
O=C(/C=C/[C@H]1O[C@@H](n2ccc(=O)[nH]c2=O)[C@H](O)[C@@H]1O)NC1CCN(Cc2ccccc2)C1 (some centres undefined)	inactive	
CCOc1ccc(-c2nnc(N3CCOCC3)c3ccccc23)cc1	inconclusive: 25.9 µM [inhibitor, single point]	
CC1CC(C)CN(c2nc(N(C)c3ccccc3)nc(N)c2[N+](=O)[O-])C1 (centres undefined)	inconclusive: 29.1 µM [inhibitor, single point]	
O=C(COC(=O)C12CC3CC(CC(C3)C1)C2)NCC1CCCO1 (centres undefined)	inactive	

Compound	Potency	activity change, negative = growth inhibition
Cn1cc(CN2CCCC(C(=O)Nc3cccc(-c4cc5ccccc5[nH]4)c3)C2)cn1 (centres undefined)	inconclusive: 29.1 µM [inhibitor, single point]	
Cc1cccc(Cn2c(CN3CCN(Cc4ccccc4)CC3)nc3c2c(=O)[nH]c(=O)n3C)c1	inconclusive: 29.1 µM [inhibitor, single point]	
CCOC(=O)C[C@H]1c2ccccc2S(=O)(=O)N1Cc1cccc(C(F)(F)F)c1	inconclusive: 17.8 µM [inhibitor, single point] and inconclusive: 16.4 µM [inhibitor, single point]	
CCOC(=O)c1cc(=O)n(Cc2ccccc2C)c2ccccc12	inconclusive: 12.6 µM [inhibitor, single point]	
CCc1ccc(C(=O)COC(=O)C2=NN(c3ccccc3)C(=O)CC2)cc1	inactive	
Cc1ccc(-n2nc(C)c3c(C)c(CCC(=O)NCCCOC(C)C)c(C)nc32)cc1	active: 23.1 µM	
O=C(c1ccc2c(c1)N(Cc1ccc(Cl)cc1)C(=O)c1ccccc1S2=O)N1CCN(c2ccccc2F)CC1 (centres undefined)	active: 23.1 µM	
CCOc1ccccc1NC(=O)C(NS(=O)(=O)c1ccc2c(c1)CCC(=O)N2)c1ccccc1 (centres undefined)	inconclusive: 16.4 µM [inhibitor, partial curve, poor fit]	
CCOC(=O)C1=C(C)N(c2ccc(OCC)cc2)C(=O)/C1=C\c1ccco1	inconclusive: 29.1 µM [inhibitor, partial curve, poor fit]	
CCOCCOC(=O)c1[nH]c2c(c1C)C(=O)CC(c1ccccc1)C2 (centres undefined)	active: 1.46 µM	
CC(=O)Nc1ccc(S(=O)(=O)N2CCN=C2SCc2ccc(F)cc2)cc1	active: 18.4 µM	
COc1ccc(/C=N/NC(=O)COc2ccc3ccccc3c2)c(C(=O)O)c1OC	active: 16.4 µM	
CCCCN(CC)CCNC(=O)c1cc2c(-c3ccccc3F)nn(C)c2s1	active: 16.4 µM	
COc1ccc(C(C)(O)c2nc(-c3ccc(OC)nc3)cs2)cc1 (centres undefined)	inconclusive: 29.1 µM [inhibitor, single point]	
Cc1nn(-c2ccccc2)c(Cl)c1/C=C1\SC(=S)N(C)C1=O	inconclusive: 23.1 µM [inhibitor, single point]	
O=C(Nc1ccc2c(c1)OCO2)c1csc([C@@H]2C[C@H](O)[C@@H](CO)O2)n1	inactive	
O=C(Nc1cccnc1)C(Cc1ccccc1)n1cccc1 (centres undefined)	inconclusive: 5.8 µM [inhibitor, partial curve]	
O=C(COC(=O)c1ccc(Cl)nc1)Nc1ccc(Cl)cc1	inactive	
O=C(c1ccc(F)cc1)N1CCC(c2nc3ccccc3o2)CC1		inconclusive: -32.4% [inhibitor]
CSc1cccc(NC(=O)C2CCN(c3ncnc4c3nc3n4CCCCC3)CC2)c1	inconclusive: 29.1 µM [inhibitor, single point]	
CN(C)c1ccc(-c2cc([C@H]3[C@@H]4C=CCC[C@@]4(C)C(=O)N3Cc3ccccc3)ccc2F)cc1	inconclusive: 29.1 µM [inhibitor, single point]	
COc1ccc(C2CC(c3cccs3)=NN2C(=O)CSC2=NN3CCCC(=O)N=C3S2)cc1 (centres undefined)	inconclusive: 29.1 µM [inhibitor, single point]	
O=C(CCC(=O)N1CC2CCCN2c2ccccc21)NCc1ccccc1 (centres undefined)	inconclusive: 6.51 µM [inhibitor, partial curve]	

Source: PubChem BioAssay AID686979 (National Center for Advancing Translational Sciences (NCATS), 2013)
